Experimental data from the supplement of paper PMC10338343.
± gives the standard deviation. The full ranking holds about 3,700 sequences; the median of “pre-steady-state target cleavage rate” is about 0.02, and the highest 2% start at about 0.23. The entries are a selection whose mix differs from that of the whole data set.

Each sequence was assayed on MILI (PIWIL2) piRISC loaded with Kctd7 piRNA (26 nt) (assay: pre-steady-state target cleavage rate (min^-1); MIWI and MILI are mouse PIWI proteins and EfPiwi is from a freshwater sponge; tags in brackets are library labels; higher = faster piRNA-guided slicing of the target). Conditions: guide: Kctd7 piRNA 5'p-UGUUAAUCUCUCAGAGAAGGUGACAG; auxiliary factor: 500 nM mouse GTSF1.
In short: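 Reactions were run for 0–8 or 0–960 min at 33 °C in HEPES–potassium acetate buffer, combining 1 nM active affinity-purified piRISC with one synthetic guide, […] transcribed, DNA-blocked target RNA library and, in some cases, 500 nM GTSF1 partner protein. Sequencing of uncleaved targets followed, with normalisation to depth and to weakly complementary targets. Three trials were pooled, k3 was capped at 0.0001 min^-1, and the pre-steady-state cleavage rate was taken from a burst-and-steady-state fit.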
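Further: 1 nM active piRISC with 0.1 nM target library at 33 °C single turnover.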

Sequence | pre-steady-state target cleavage rate
UAGUGACAGUCCUUCUCUGAAAGAUUAACA | 0.0226 ± 0.0043
UAGUGACAGUGGAAGAGAGAGAGAUUAUACA | < 0.0001
UAGUGACCCACCUUCUCUGAGAGAUUAACA | 0.286 ± 0.039
UAGUGAGUCAGCUUCUCAGAGAGAUUAACA | 0.114 ± 0.0093
UAGUGUGUCACGUUCUCUGAGUGAUUAACA | 0.00506 ± 0.0039
UAGUCUGUCACCAUUCUCUGAGAGAUUAACA | 0.16 ± 0.0092
UAGUGACAGUCCUUCUCAGAGAGAUUUACA | 0.0138 ± 0.0054
UAGUCUGUCAGCUUCUCUGAGAGAUUAUCA | 0.0964 ± 0.013
UAGUGUGUCACCUUCUCUGAGAGAUUUAGA | 0.0575 ± 0.02
UAGUGACAGUCCUUCACUGUGAGAUUAACA | 0.0194 ± 0.0046
UAGUGACUCACCUUCUCUGAGAGAUAUACA | 0.0595 ± 0.012
UAGUCUGUCACCUUCUAUGAGAGAUUAACA | 0.0891 ± 0.014
UAGUGACAGUGGAAGACUGAGAGAUUAAGCA | < 0.0001
UAGUGACAGACCUUCUCUGAGAGAUUAACA [g2:g21:cont:t1A] | 0.0904 ± 0.0083
UAGUCUGUCAGGAUCUCUGAGAGAUUAAGA | 0.0158 ± 0.0033
UAGUGAGUUACCUUCUCUGAGAGAUUAACA | 0.145 ± 0.015
UAGUGACACACCUUUCUCUGAGAGAUUAACA | 0.109 ± 0.011
UAGUGACACACCAAGUCUGAGAGAUUAACA | 0.0391 ± 0.007
UAGUGUGUCACCUUCUGUGAGAGAUUAUGA | 0.00882 ± 0.0045

Sequence | pre-steady-state target cleavage rate
UAGUGACUAACCUUCUCUGAGAGAUUAACA | 0.0637 ± 0.009
UAGUGUGUAACCUUCUCUGAGAGAUUAACA | 0.126 ± 0.018
UAGUGAGUCACCAACUCUGAGAGAUUAUGA | 0.0074 ± 0.0041
UAGUGACAGUGCUUCUCUGAAGAUUAACA | < 0.0001
UAGUGACACUCCUUCUCUGUGAGAUUAACA | 0.0359 ± 0.0058
UAGUCUGUCUGCUUCUCUGAGAGAUUAUGA | 0.00777 ± 0.0017
UAGUGACAGACUUCUCUGAGAGAUUAACA | 0.0162 ± 0.0049
UAGUGAGUGUCCUUCUCUGAGAGAUUAACA | 0.113 ± 0.013
UAGUGACAGUGGUUCUCUGAGAGAUUAACG [g2:g18:cont:t1G] | 0.0112 ± 0.0028
UAGUGACAGACCUUCUCUGAGAGAUUAAGA | 0.0554 ± 0.014
UAGUGACAGUGGUUCUCUGAGAGAUUAACA [g2:g18:cont:t1A] | 0.0125 ± 0.0013
UAGUGACAGUGGAAGACUGAGAGAUUAACU [g2:g14:cont:t1U] | < 0.0001
UAGUGACAGACCUUCACUGAGAGAUUAACA | 0.0685 ± 0.0077
UAGUGACACACCAACUCUGAGAGAUAUUGA | < 0.0001
UAGUGACAGUCCUACUCUGAGAGAUUAACA | 0.0344 ± 0.0052
UAGUGAGUCAGCUUCUCUGAGAGAUUAUGA | 0.0138 ± 0.0051
UAGUGAGUCACCUAUCUCUGAGAGAUUAACA | 0.161 ± 0.011
UAGUGUGUCACCUUCUCUGAGAGAUUAAGA | 0.145 ± 0.036
UAGUGUGUCACCUUGUCUCAGAGAUUAACA | 0.0268 ± 0.0067
